Results taken from PubChem BioAssay AID1159580 (chemical genetic matrix, 2015).
Among all 5,500 compounds or so, about 2,000 (36%) were called active. This list was built around the results that the source calls inconclusive (neither active nor inactive); the mix of calls is not that of the screen. No stated cut-off is given here; in the data, active means normalized growth mostly below about 0.91 (no sharp cut-off); inconclusive means no clear call, values can overlap the other calls; inactive means mostly above about 0.92. Some compounds were tested as several samples or in several runs, with calls that do not always agree.

Test: chemical genetic growth profiling, strain panel (AID 1159580);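 further: tested at 20 µM; growth read once vehicle control cultures reached saturation at 30 °C; 1 = growth at the plate median or of vehicle wells; lower values mean less growth of the strain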
Conditions: S. cerevisiae deletion strains, growth OD
[1] = locus YOL136C, strain PFK27, active compounds read low
[2] = locus YBL061C, strain skt5, active compounds read low
[3] = locus YNL197C, strain WHI3, active compounds read low
[4] = locus YOR083W, strain WHI5 (second series), active compounds read low
[5] = locus YJR043C, strain POL32, active compounds read low
[6] = locus YKL009W, strain mrt4, active compounds read low
[7] = locus YOR184W, strain ser1, active compounds read low
[8] = locus YER002W, strain NOP16, active compounds read low

Q: Which results are given for `COc1cc(N2C(=O)C=CC2=O)cc(OC)c1OC`?
A: normalized growth (locus YDL101C, strain DUN1, active compounds read low): inconclusive: 0.713 [sensitive]; normalized growth (locus YHR205W, strain SCH9, active compounds read low): inconclusive: 0.568 [sensitive]; normalized growth (locus YJL157C, strain FAR1, active compounds read low): inconclusive: 0.551 [sensitive]; normalized growth (locus YJR066W, strain TOR1 (second series), active compounds read low): inconclusive: 0.496 [sensitive]; normalized growth (locus YKL067W, strain YNK1, active compounds read low): inconclusive: 0.549 [sensitive]; normalized growth (locus YKL101W, strain HSL1, active compounds read low): inconclusive: 0.695 [sensitive]; normalized growth (locus YLR133W, strain CKI1, active compounds read low): inconclusive: 0.722 [sensitive]; normalized growth (locus YLR403W, strain SFP1, active compounds read low): inconclusive: 0.651 [sensitive]; normalized growth (locus YML070W, strain DAK1, active compounds read low): inconclusive: 0.528 [sensitive]; normalized growth [1]: inconclusive: 0.553 [sensitive]; normalized growth (locus YPL031C, strain PHO85, active compounds read low): inconclusive: 0.523 [sensitive]; normalized growth (locus YPL153C, strain RAD53, active compounds read low): inconclusive: 0.59 [sensitive]; normalized growth (locus YPL204W, strain HRR25, active compounds read low): inconclusive: 0.621 [sensitive]; normalized growth (locus YPR111W, strain DBF20, active compounds read low): inconclusive: 0.691 [sensitive]

Q: Which normalized growth (locus YNL248C, strain rpa49, active compounds read low) does the source give for `C/C1=C/CC(C)(C)/C=C/C/C(C)=C/CC1` here?
A: Its normalized growth is inconclusive: 0.883 [sensitive].

Q: Which normalized growth [2] does the source give for `NC(=O)c1ccc(N)nc1` here?
A: Its normalized growth is inconclusive: 1.12 [resistant].

Q: For `CCCCCCCCCC[Si](C)(C)CCC(=O)NC(Cc1ccc(C)cc1)c1ccccc1` (stereo not given), which normalized growth [3] is on record?
A: The normalized growth was inconclusive: 1.14 [resistant].

Q: What about the normalized growth [4] of the same compound?
A: The normalized growth was inconclusive: 1.13 [resistant].

Q: Which normalized growth (locus YDL185W, strain tfp1, active compounds read low) does the source give for `N[C@@H](Cc1ccc(N(CCCl)CCCl)cc1)C(=O)O` here?
A: The normalized growth was inconclusive: 0.888 [sensitive].

Q: Which normalized growth [5] does the source give for `O=C1NC(=S)NC(=O)C1=Cc1cccc2ccccc12` here?
A: Its normalized growth is inconclusive: 0.907 [sensitive].

Q: Which results are given for `COc1cccc(-c2cc(=O)c3cc(OC)ccc3o2)c1`?
A: normalized growth (locus YER110C, active compounds read low): inconclusive: 1.11 [resistant]; normalized growth (locus YOR144C, strain elg1, active compounds read low): inconclusive: 1.08 [resistant]

Q: For `CC1(C)CC[C@]2(C(=O)O)CC[C@]3(C)C(=CCC4[C@@]5(C)CC[C@H](O)[C@@](C)(CO)C5CC[C@]43C)C2C1` (stereo not given in full), which normalized growth [6] is on record?
A: Its normalized growth is inconclusive: 1.24 [resistant].

Q: What about the normalized growth (locus YKL068W, active compounds read low) of the same compound?
A: The normalized growth was inconclusive: 1.08 [resistant].

Q: Which normalized growth [6] does the source give for `CC(=O)O[C@@H]1CC2C(C)(C)C=CC(=O)[C@]2(C)C2CC[C@@]3(C)[C@H](c4ccoc4)OC(=O)C4OC43[C@@]21C` (stereo not given in full) here?
A: The normalized growth was inconclusive: 1.53 [resistant].

Q: With `Cc1cc(C)cc(OCC2CNC(=O)O2)c1` (stereo not given) as the compound, how does the normalized growth (locus YFR010W, strain ubp6, active compounds read low) read?
A: Its normalized growth is inconclusive: 0.795 [sensitive].

Q: With `CCOC(=O)c1cnc2cc(C)nn2c1C` as the compound, how does the normalized growth (locus YNL153C, strain GIM3, active compounds read low) read?
A: The normalized growth was inconclusive: 0.904 [sensitive].

Q: Which normalized growth (locus YHR013C, strain ard1, active compounds read low) does the source give for `Nc1ccc(C(=O)O)cc1` here?
A: The normalized growth was inconclusive: 1.17 [resistant].

Q: Which normalized growth [6] does the source give for `CC(CC(O)C1OC1(C)C)[C@@H]1CCC2(C)C3=CCC4C(C)(C)C(=O)CCC4(C)C3CC[C@@]12C` (stereo not given in full) here?
A: Its normalized growth is inconclusive: 1.3 [resistant].

Q: And the normalized growth (locus YKL085W, strain MDH1 (second series), active compounds read low)?
A: The normalized growth was inconclusive: 1.15 [resistant].

Q: What about the normalized growth (locus YKL085W, strain MDH1, active compounds read low) of the same compound?
A: The normalized growth was inconclusive: 1.15 [resistant].

Q: For `C[C@@H]1CC[C@]2(C(=O)O)CC[C@]3(C)C(=CCC4[C@@]5(C)CC[C@H](O)C(C)(C)C5CC[C@]43C)C2[C@H]1C` (stereo not given in full), which normalized growth [6] is on record?
A: The normalized growth was inconclusive: 1.51 [resistant].

Q: For `O=[N+]([O-])c1cc(O)c(O)c([N+](=O)[O-])c1`, which normalized growth [5] is on record?
A: Its normalized growth is inconclusive: 1.25 [resistant].

Q: For `CN1/C(=C/C=C/c2ccc3ccccc3[n+]2C)C=Cc2ccccc21`, which normalized growth (locus YJL128C, strain PBS2, active compounds read low) is on record?
A: The normalized growth was inconclusive: 0.779 [sensitive].

Q: And the normalized growth (locus YMR277W, strain FCP1, active compounds read low)?
A: The normalized growth was inconclusive: 0.755 [sensitive].

Q: And the normalized growth (locus YOL078W, strain AVO1, active compounds read low)?
A: The normalized growth was inconclusive: 0.632 [sensitive].

Q: For `C#CC1(O)CCC2C3CCC4=CC(=O)CCC4(C)C3CCC21C` (stereo not given), which normalized growth (locus YDR137W, strain rgp1, active compounds read low) is on record?
A: Its normalized growth is active: 1.19 [resistant].

Q: And the normalized growth (locus YNL307C, strain MCK1, active compounds read low)?
A: Its normalized growth is active: 0.906.

Q: And the normalized growth (locus YOL012C, strain htz1)?
A: Its normalized growth is inconclusive: 2.45 [resistant].

Q: What about the normalized growth [7] of the same compound?
A: Its normalized growth is active: 0.87.

Q: What about the normalized growth (locus YOR270C, strain vph1, active compounds read low) of the same compound?
A: Its normalized growth is active: 0.727.

Q: Which normalized growth (locus YOL012C, strain htz1) does the source give for `NC1CC1c1ccccc1` (stereo not given) here?
A: Its normalized growth is inconclusive: 2.59 [resistant].

Q: What does the source list for `CC(=O)O[C@H]1C(=O)[C@@]2(C)C([C@H](OC(=O)c3ccccc3)[C@]3(O)C[C@H](OC(=O)[C@H](O)[C@@H](NC(=O)c4ccccc4)c4ccccc4)C(C)=C1C3(C)C)[C@]1(OC(C)=O)CO[C@@H]1C[C@@H]2O` (stereo not given in full)?
A: normalized growth (locus YKR001C, strain vps1, active compounds read low): inconclusive: 1.11 [resistant]; normalized growth [7]: inconclusive: 1.14 [resistant]

Q: With `Cc1nn(Cc2nnc(SCc3cccc(C(F)(F)F)c3)o2)c(C)c1Br` as the compound, how does the normalized growth (locus YLR113W, strain HOG1, active compounds read low) read?
A: Its normalized growth is active: 0.854.

Q: Which normalized growth [2] does the source give for `O=c1cc(-c2ccccc2)oc2cc(O)cc(O)c12` here?
A: The normalized growth was inconclusive: 1.08 [resistant].

Q: With `CCN(CC)C(=S)SSC(=S)N(CC)CC` as the compound, how does the normalized growth [8] read?
A: Its normalized growth is inconclusive: 0.603 [sensitive].

Q: With `CN1C(=O)CCC1c1cccnc1` (stereo not given) as the compound, how does the normalized growth [3] read?
A: Its normalized growth is inconclusive: 0.856 [sensitive].

Q: Which normalized growth [6] does the source give for `CCCCC[C@H]1C(=O)O[C@H](C)[C@H](NC(=O)c2cccc(NC=O)c2O)C(=O)O[C@@H](C)[C@@H]1OC(=O)CC(C)C` here?
A: The normalized growth was inconclusive: 1.3 [resistant].

Q: Which normalized growth (locus YEL061C, strain CIN8, active compounds read low) does the source give for `COc1cc(O)c2c(c1)C(=O)c1cc(C)cc(O)c1C2=O` here?
A: Its normalized growth is inconclusive: 1.08 [resistant].

Q: With `CC1SC(c2cccnc2)N(c2ccc(Cl)cc2)C1=O` (stereo not given) as the compound, how does the normalized growth [1] read?
A: The normalized growth was inconclusive: 0.673 [sensitive].

Q: For `CC[C@@H](C(=O)C(C)[C@@H](O)[C@H](C)CCc1ccc(C)c(O)c1C(=O)O)C1OC(CC)(C2CC[C@](O)(CC)[C@H](C)O2)C[C@@H]1C` (stereo not given in full), which normalized growth [6] is on record?
A: Its normalized growth is inconclusive: 1.18 [resistant].

Q: What does the source list for `Cc1nc2sccn2c(=O)c1CCN1CCC(=C(c2ccccc2)c2ccc(F)cc2)CC1`?
A: normalized growth [8]: inconclusive: 1.1 [resistant]; normalized growth [4]: inconclusive: 0.86 [sensitive]

Q: With `c1ccc(CSC2=NCCCN2)cc1` as the compound, how does the normalized growth (locus YMR263W, strain SAP30, active compounds read low) read?
A: Its normalized growth is inconclusive: 0.885 [sensitive].
